Experimental data: publication PMC4336329 (PLoS ONE, 2015)
Among all 310,000 compounds or so, about 2,200 (0.71%) showed an effect of 50% or more. The effect is printed as a negative number. Some of the results follow.

molecular target: human ether-à-go-go-related gene (hERG) potassium channel (human, UniProt Q12809); assay: primary screen, population patch clamp on CHO cells stably expressing hERG
Sequence (Q12809 whole entry, looked up): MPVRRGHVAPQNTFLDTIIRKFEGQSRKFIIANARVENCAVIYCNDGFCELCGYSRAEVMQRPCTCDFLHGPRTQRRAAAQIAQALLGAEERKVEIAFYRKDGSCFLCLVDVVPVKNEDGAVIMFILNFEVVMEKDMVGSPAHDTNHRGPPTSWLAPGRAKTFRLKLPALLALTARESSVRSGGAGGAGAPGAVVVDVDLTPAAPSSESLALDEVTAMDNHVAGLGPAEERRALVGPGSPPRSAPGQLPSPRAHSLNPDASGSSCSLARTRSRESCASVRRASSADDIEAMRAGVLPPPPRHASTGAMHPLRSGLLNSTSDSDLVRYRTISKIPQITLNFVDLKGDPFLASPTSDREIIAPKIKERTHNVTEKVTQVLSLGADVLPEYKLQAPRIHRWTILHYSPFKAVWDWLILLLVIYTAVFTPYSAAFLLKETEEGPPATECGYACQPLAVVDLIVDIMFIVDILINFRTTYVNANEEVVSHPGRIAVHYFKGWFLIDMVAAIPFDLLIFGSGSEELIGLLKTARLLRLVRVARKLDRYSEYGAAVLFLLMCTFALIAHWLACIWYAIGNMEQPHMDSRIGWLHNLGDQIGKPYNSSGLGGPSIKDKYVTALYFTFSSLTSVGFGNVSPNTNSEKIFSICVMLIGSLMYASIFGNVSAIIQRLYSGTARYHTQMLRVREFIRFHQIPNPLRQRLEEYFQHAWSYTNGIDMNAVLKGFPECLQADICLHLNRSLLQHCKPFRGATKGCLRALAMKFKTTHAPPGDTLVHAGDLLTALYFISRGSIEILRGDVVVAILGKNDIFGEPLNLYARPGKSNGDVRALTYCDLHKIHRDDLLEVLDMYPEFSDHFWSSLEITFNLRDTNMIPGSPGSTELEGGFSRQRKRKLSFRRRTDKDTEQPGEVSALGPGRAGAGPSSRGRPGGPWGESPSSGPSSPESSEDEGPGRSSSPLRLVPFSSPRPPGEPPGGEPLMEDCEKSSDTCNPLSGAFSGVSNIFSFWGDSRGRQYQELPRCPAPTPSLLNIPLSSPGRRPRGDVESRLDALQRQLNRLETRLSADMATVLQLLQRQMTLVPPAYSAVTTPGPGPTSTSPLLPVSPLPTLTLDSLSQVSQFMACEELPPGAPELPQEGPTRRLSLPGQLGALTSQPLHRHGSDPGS

Compound	hERG current change (%, negative = inhibition) at 1uM [%]
O=C(Cn1nnc2ccccc21)c1ccc([N+](=O)[O-])cc1	0.57
CCOc1ccc(C(=O)N2CCN(c3cnn(-c4ccccc4)c(=O)c3Cl)CC2)cc1	-45.9
O=C1C=C(c2ccccc2)C(=O)N1Nc1ccccc1	-41.1
O=C(c1cc(F)c(F)cc1Cl)N1CCCCC1	-8.21
Cc1ccc(O)c(Nc2ncnc3ccc([N+](=O)[O-])cc23)c1.Cl	17.9
O=C(Nc1ccc(Cl)cc1)C1CCN(C(=O)NC2CCCCC2)CC1	-0.257
O=C(C1CCN(c2ccc(N3CCOCC3)nn2)CC1)N1CCc2ccccc2C1	-6.52
O=C(Nc1ccccc1N1CCCC1)c1cccc(F)c1	10.3
CS(=O)(=O)N(CCc1ccccc1)CC(=O)N1CCN(c2ccccc2F)CC1	5.48
COc1cc(/C=C(\C#N)C(=O)N2CCc3ccccc32)ccc1O	-2.09
CC1=CC2=NC(=O)CC(C)(C(=O)N(CC(=O)NC(C)(C)C)Cc3ccccc3)N2C=C1 (centres unmarked)	12.8
Nn1c(SCC(=O)Nc2ccccc2F)nnc1-c1cccnc1	23
CC(=Nc1ccc(C)c(C)c1)C1=C(O)CCC1=O	6.05
CCOc1ccc2nc(NCCNC(=O)C3CC3)c(C)cc2c1	-38.7
COc1cc(C(=O)Nc2ccc(S(=O)(=O)NC(C)C)cc2)cc(OC)c1OC	-7.86
CN(Cc1ccc(Cl)cc1Cl)C(=O)CCNC(=O)c1ccco1	9.67
CCCn1nnc(NC(=O)c2cc(Br)ccc2OC)n1	-11.5
Cc1cc(C)cc(SCc2noc(C(=O)NCC3CC3)c2C(=O)NCC2CC2)c1	5.22
COc1ccc(S(=O)(=O)N(CC(=O)NCc2cccnc2)C2CCCCC2)cc1OC	9.37
Cc1ccc(/C=c2/sc3n(c2=O)CCCN=3)o1	-1.24
O=[N+]([O-])c1cccc(-c2nc(-c3cccs3)c(-c3cccs3)[nH]2)c1	8.56
CCCCN(C(=O)c1cc2c(s1)CCC2)c1c(N)n(CC(C)C)c(=O)[nH]c1=O	9.04
O=C1C2CCCN2C(c2cccnc2)N1c1ccc(Cl)c(Cl)c1 (centres unmarked)	10.4

Compound	hERG current change (%, negative = inhibition) at 1uM [%]
CN1C(=O)SC(Nc2cccc3ccccc23)C1=O (centres unmarked)	3.64
COCCN(C(=O)CNC(=O)c1ccco1)C(C(=O)NC1CCCCC1)c1cccs1 (centres unmarked)	15.7
COc1ccccc1N1CCN(/N=C\c2ccc(C)o2)CC1	9.09
COc1cc2c(cc1OC)C(C(=O)NCc1ccco1)C(c1cccs1)N(C)C2=O (centres unmarked)	6.75
Cc1ccc(NC(=S)N2CCCCCC2)cc1	11.4
CC1CCCCC1NC(=O)C1CCC(CNS(=O)(=O)c2cccc3cccnc23)CC1 (centres unmarked)	22.4
CN(C)S(=O)(=O)c1ccc2c(c1)/C(=C/c1cc3c([nH]1)CCCC3)C(=O)N2	5.89
CCOCCc1nnc(NC(=O)CCS(=O)(=O)c2ccccc2)s1	17.4
Cc1cc(Cl)c(S(=O)(=O)NCC2CCCO2)cc1OCC(N)=O (centres unmarked)	14.3
CSc1ccccc1NC(=O)CCn1c(=O)oc2ccccc21	8.53
N#CC1=C(N)OC2=C(CN(Cc3ccccc3)C/C2=C\c2cccnc2)C1c1cccnc1 (centres unmarked)	4.49
CCN1CCC2(CC1)N=C(c1ccc(F)cc1)C(=S)N2C(=O)c1ccc(C)cc1	6.46
COc1ccc(C)c2sc(NNC(=O)COc3ccccc3)nc12	-4.35
Clc1ccc(C(c2nnnn2C2CCCC2)N2CCN(Cc3ccncc3)CC2)cc1 (centres unmarked)	-23.1
CNC(=O)C(=O)NCC1OCCN1S(=O)(=O)c1ccc(C)cc1 (centres unmarked)	11.4
CC(C)c1ccc(NC(=O)COc2ccccn2)cc1	8.95
Cc1ccccc1NC(=O)c1cccc(NC(=O)CCC(=O)O)c1	11
O=C(NCCc1ccccc1)C1CCC(=O)N(Cc2ccc(Cl)cc2)C1 (centres unmarked)	5.85
C=CCn1cccc(C(=O)Nc2ccc(SC)cc2)c1=O	9.2
Cn1ncc(Cl)c1C(=O)N1CCN(S(=O)(=O)c2cccs2)CC1	7.57
CCC(=O)Nc1ccc2c(c1)C(=O)c1ccccc1C2=O	1.44
CCOc1ccc(CN2CCN(C(=O)c3ccco3)CC2)cc1.O=C(O)C(=O)O	2.77
O=C(CC(C(=O)O)c1ccccc1)c1cccs1 (centres unmarked)	8.52

Compound	hERG current change (%, negative = inhibition) at 1uM [%]
COCCN(CCOC)C(=O)c1cc2sc3ccccc3c2s1	-32
COc1ccc(CCNC(=O)c2cccnc2SC)cc1	7.76
O=S(=O)(c1ccc(F)cc1)N1CCN(CC(O)COCc2cccs2)CC1 (centres unmarked)	-5.83
CCNC(=O)C(=O)Nc1cc2c3c(c1)CCN3C(=O)CC2	12.2
Cc1cccc(NC(=O)CCc2c(C)nn(-c3ccc(N4CCOCC4)nn3)c2C)c1	11
Cn1cccc1C(=O)NS(=O)(=O)c1ccccc1Cl	9.04
O=C(Nc1cccc(Cl)c1)c1cc(S(=O)(=O)N2CCOCC2)cs1	4.92
CC(=O)N1CCC2(CC1)CC(=O)c1cc(OCC(=O)N3CCOCC3)ccc1O2	-0.507
NC(=O)c1ccc(NC(=O)COC(=O)C2(c3ccccc3F)CCCC2)cc1	8.88
Cc1cc(C)c2[nH]c(=O)c(CN(Cc3cccnc3)C(=S)NCCCN(C)C)cc2c1	6.73
Cc1nc2c(sc3nc4c(cc32)COC(C)(C)C4)c(=O)o1	-6.36
CCn1c(C)nc2cc(C(=O)NNC(=S)Nc3ccc(C)cc3)ccc21	12.6
O=C1Nc2cc(C(=O)NCCCN3CCOCC3)ccc2S/C1=C/c1ccccc1F	-2.65
Cc1nn(C)c(C)c1/C=C1/CC2C3CC=C4CC(O)CCC4(C)C3CCC2(C)C1=O (centres unmarked)	-0.68
CCC(C(=O)NCc1ccco1)N(C(=O)CNS(=O)(=O)c1ccccc1)c1ccc(F)cc1 (centres unmarked)	8.08
COc1ccc(N2CCN(Cc3cc(OC)c(O)c([N+](=O)[O-])c3)CC2)cc1	8.51
Cc1cc(C(=O)CSc2nnc(Nc3ccccc3)s2)c(C)n1CC1CCCO1 (centres unmarked)	-9.24
COc1ccc2nc(C(F)(F)Cl)c(C#N)c(N)c2c1	10.9
Cc1cc(C)c(C#N)c(Nc2cccc(C)c2C)n1	14.9
O=S(=O)(c1cccc(-c2nc3n(n2)Cc2ccccc2-3)c1)N1CCCC1	4.19
CSCC[C@H](NC(=O)N1CCn2c1nc1ccccc12)C(=O)NC1CCCCC1	9.44
O=C(NCCOc1ccccc1)c1cncc(Br)c1	-4.97
Clc1ccc(SCCOCCN2CCCCC2)cc1.O=C(O)C(=O)O	-61.1

Compound	hERG current change (%, negative = inhibition) at 1uM [%]
CC(=O)c1cc(C#N)c(SCC(=O)OC(C)(C)C)nc1C	8.25
COc1ccccc1C(c1nnnn1CC1CCCO1)N1CCC(C(N)=O)CC1.Cl (centres unmarked)	1.02
N#Cc1ccc(NCC(=O)Nc2ccc(S(=O)(=O)N3CCCCC3)cc2)cc1	9.37
CN1CCN(c2oc(-c3ccccc3Cl)nc2S(=O)(=O)c2ccccc2)CC1	-8.02
COC(=O)c1ccc(C(=O)OC)c(NC(=S)N2CCC(C(N)=O)CC2)c1	12.3
CC(=O)Nc1ccc(NC(=O)C(C)OC(=O)c2cc(S(=O)(=O)N(C)C)ccc2N2CCCC2)cc1 (centres unmarked)	4.78
CCOC(=O)C1CCN(C(=O)COC(=O)COc2ccccc2OC)CC1	8.94
O=C(N/N=C\c1cc2c(cc1Cl)OCO2)c1cccs1	20.5
O=C(Nc1ccccc1C(=O)NC1CC1)c1ccccc1	16.2
Cn1c(SCc2c(Cl)cccc2Cl)nnc1-c1cccs1	-9.39
O=C(NCc1ccco1)C(C(=O)c1ccccc1)n1ccccc1=O (centres unmarked)	14.2
COc1cccc(C(C(=O)NC2CCCCC2)N(C(=O)Cc2cccs2)c2ccc(-n3cnnn3)c(OC)c2)c1 (centres unmarked)	19
CCc1nnc(NS(=O)(=O)c2ccc(Nc3ccc([N+](=O)[O-])c4nonc34)cc2)s1	15.3
CC(C)N(Cc1ccccc1)C(=O)COC(=O)CCC(=O)c1ccc(F)cc1	3.13
Cn1c(=O)c2c(SCC(=O)NCC3CCCO3)nc(CC(C)(C)C)nc2n(C)c1=O (centres unmarked)	-0.562
CCS(=O)(=O)N1CCN=C1SCc1cccc(F)c1	11.7
CCN(CC(=O)Nc1cccc(C(C)=O)c1)S(=O)(=O)c1ccccc1	4.85
c1ccc([C@H]2CC3C[C@@H](c4ccccc4)N2O3)cc1	7.81
Cl.Nc1ccc(Oc2cc(N)cc(Oc3ccccc3)c2)cc1	15.8
COc1ccc(NS(=O)(=O)c2ccc(NC(=O)c3ccccc3Br)cc2)nn1	8.74
